± gives the standard deviation of the averaged measurements. The list shows a part of the results.
These sequences were tested on PfAP2-G AP2 domain (GST-tagged) (assay: gcPBM binding intensity (ln(normalized median fluorescence intensity)); higher = stronger DNA binding).
How it was run: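 GST-tagged P. falciparum DNA-binding domains produced in E. coli were incubated for 1 h on an Agilent 4 × 180k array of primer-extended double-stranded 36-bp intergenic genomic probes with negative controls. Binding intensity is the highest Masliner-normalised natural-log median intensity across replicate spots of either probe orientation, with bound protein detected by Alexa488 anti-GST antibody at 488 nm.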

Sequence | gcPBM binding intensity (ln)
CATTTCATTAATAAATGTACTTGTGAAGAGAAAAAG [XGTACX_site3115] | 11.2 ± 0.71
AAAAGATAAAAAGAAGTGCATAATAGGAACAAATAT [GTGCAC_site9717] | 10.28 ± 0.049
ATAATAAAAAGAAAAAGTACAAATGATTATGTTTGA [XGTACX_site3615] | 11.2 ± 0.62
ATATATATATATATATATATAATAAAAGATCATTTA [XGTACX_negctrl_site371] | 10 ± 0.59
TTATCTAGTACATACATACACACAACCATGTTATGA [CACACA_site3988] | 11 ± 0.61
CAAGTATTATATTGCGCATGCAAAGAAGGACACAAA [TGCATGCA_site1024] | 11.5 ± 0.94
AATAAATAAATAAGTACACACATATAAATATAAATA [CACACA_site6271] | 11.6 ± 1.2
TTCTACATGAAGTTATAAATTAATATTTTAATTTAT [XGTACX_negctrl_site134] | 9.61 ± 0.25
GTATTTCTTTAATATACACACACCAAAACAAAAAAA [CACACA_site579] | 10.3 ± 0.38
TACTTTATTTTTTATACACACACAATATGTATATAT [CACACA_site9184] | 10.2 ± 0.17
TTTCAAGAATTATATAAACACACATACATACACCCA [CACACA_site8592] | 10.6 ± 0.62
ACATATATATATATTACACACACACTAATAAAATAA [CACACA_site7920] | 10.08 ± 0.057
ATAAGGATCAGACACAAACACACATATATATATATA [CACACA_site558] | 10.1 ± 0.3
AAATAATTCATATGTTGTACAGTAATTAAATTTTCT [XGTACX_site6343] | 11.4 ± 0.95
ATAATTAATCCAAAATGTACTTACATTTTATATGAA [XGTACX_site8888] | 11.1 ± 0.76
TTTTATAATTTATCTAAAAAAAAATAAAATAAAATG [TGCATGCA_negctrl_site429] | 9.86 ± 0.4
ATAAAATAAAATAAAAGTACATAAATATATATATAT [XGTACX_site6110] | 11.2 ± 0.83
TTTTTTTTTCTTTGCACACAGATAACTTGAAATTTG [CACACA_site2185] | 10.3 ± 0.2
TATATATATTTAAATTGTACATATATTATTCATATG [XGTACX_site911] | 10.9 ± 0.57
TCTTTCTATTAAACATGTACTTGTCTAAAGACATAA [XGTACX_site8564] | 11.1 ± 0.65
CGAATAAATATATGTAGTACATGTTGTAGATAATTT [XGTACX_site1218] | 11.5 ± 0.83
TTATTTTCTACAAATTGTACATATTTTTTACTACTC [XGTACX_site1394] | 11.1 ± 0.59

Sequence | gcPBM binding intensity (ln)
ATTTATGAAAAAAATACATGCATGTCCATATAAATT [TGCATGCA_site505] | 10.6 ± 0.31
AATAATATATATTACTGTACTAATATAAGGGACATC [XGTACX_site3744] | 11.5 ± 0.96
AATTATAATAATAATAGTACATAAGTATATAAATAA [XGTACX_site2400] | 11 ± 0.62
TCTTTCTAAATCTTACAAATTACTAAAATATTTATA [CACACA_negctrl_site87] | 9.765 ± 0.007
GAGGAAAAAAAAAAAAGTACATTATATAAGAAAATT [XGTACX_site2610] | 11.5 ± 1
TTAAATATTTATATTTGTACACAATCAATCATACAC [XGTACX_site5793] | 11.3 ± 0.75
AATAATAAAATAAAAGTGCATTAATTATAATTCTTT [GTGCAC_site9491] | 9.825 ± 0.049
AAAAAAAAAAAAAAAAGTACAAATTTAAAAATGTGT [XGTACX_site112] | 11.6 ± 1
TTGGTTTCTTGTTTTTGTACCCATAATTTGTAATAT [XGTACX_site1248] | 11.4 ± 0.87
TGTTTTGTTATTTTTATTTATATAAATAAAGCTATA [GTGCAC_negctrl_site88] | 10.3 ± 0.64
ATATATATATTATATGCACACTAATAAGACTATTTA [CACACA_site5880] | 10.1 ± 0.24
CATAAATACAGTAACACACACAAAAAAATATGAATA [CACACA_site6066] | 10.09 ± 0.049
TTTGTTTGTAAAATGTTGCACTTTCTTTTGCTGATA | 10.1 ± 0.12
ATAGGATTCTCAAAGTGTACTTGTCTACTGTAGTTT [XGTACX_site4202] | 11.4 ± 0.88
CCATTATACACAATATGTACATATATATAATCATTT [XGTACX_site7942] | 11.2 ± 0.76
AAAAAAAAAATATGTACACACATATAAAATACATAA [CACACA_site6869] | 11.6 ± 1
ATATATATATTTTATTGTACAAAAAAAAAAAAAAAA [XGTACX_site6803] | 11.1 ± 1
TTGTTATGCATTGGTTGTACATAAGTATAAGTAATT [XGTACX_site5401] | 11.1 ± 0.67
TCGTAATAATATAAATGTACTTTATTAATTAAAAGA [XGTACX_site3416] | 11.1 ± 0.6
TACAATATATTTATAGTGCATATTACTTTTAACTTT | 9.875 ± 0.049
TACATCTTACTACTTATAATATAATATAGTATGAAT [TGCATGCA_negctrl_site8] | 9.74 ± 0.13
CATTATGATTAAATATGTACATATTATTATATAAAT [XGTACX_site2477] | 11.2 ± 0.66

Reference: the supplement of paper PMC11417369
